From article PMC9911399, “Two distinct binding modes provide the RNA-binding protein RbFox with extraordinary sequence specificity”
Substitutions are numbered along the chain they refer to; changes in the protein carry UniProt numbers. The list shows a part of the results.

T1: RBFOX1 RRM RbFoxmut (Fox-RRM*) (Homo sapiens, UniProt Q9NWB1 109-208, R118D;E147R;N151S;E152T)
T1 sequence: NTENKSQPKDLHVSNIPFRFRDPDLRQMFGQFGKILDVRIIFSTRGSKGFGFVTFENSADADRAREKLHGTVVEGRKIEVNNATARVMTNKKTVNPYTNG

B1: GAGUCAA (DNA:RNA)
RNA: GGGAGACCGGAAUUCAGAUUGUCCGAGUCAAUUAAAUCCCGUCGUAGCCACCA
DNA 1: CAATCTGAATTCCGGTCTCCC
DNA 2: TGGTGGCTACGACGGGATT
B2: GACUGUG (DNA:RNA)
RNA: B1 RNA with G27C, C29G, A30U, A31G
DNA 1: CAATCTGAATTCCGGTCTCCC
DNA 2: TGGTGGCTACGACGGGATT
B3: CUAAAGC (DNA:RNA)
RNA: GGGAGACCGGAAUUCAGAUUGUCCCUAAAGCUUAAAUCCCGUCGUAGCCACCA
DNA 1: CAATCTGAATTCCGGTCTCCC
DNA 2: TGGTGGCTACGACGGGATT
B4: GCUACGG (DNA:RNA)
RNA: B3 RNA with C25G, U26C, A27U, A29C, C31G
DNA 1: CAATCTGAATTCCGGTCTCCC
DNA 2: TGGTGGCTACGACGGGATT
B5: UCCGAGC (DNA:RNA)
RNA: B3 RNA with C25U, U26C, A27C, A28G
DNA 1: CAATCTGAATTCCGGTCTCCC
DNA 2: TGGTGGCTACGACGGGATT
B6: CCGCCUC (DNA:RNA)
RNA: B3 RNA with U26C, A27G, A28C, A29C, G30U
DNA 1: CAATCTGAATTCCGGTCTCCC
DNA 2: TGGTGGCTACGACGGGATT
B7: AACGCGG (DNA:RNA)
RNA: B1 RNA with G25A, G27C, U28G, A30G, A31G
DNA 1: CAATCTGAATTCCGGTCTCCC
DNA 2: TGGTGGCTACGACGGGATT
B8: CCUCGAA (DNA:RNA)
RNA: B1 RNA with G25C, A26C, G27U, U28C, C29G
DNA 1: CAATCTGAATTCCGGTCTCCC
DNA 2: TGGTGGCTACGACGGGATT
B9: CGGUACU (DNA:RNA)
RNA: B3 RNA with U26G, A27G, A28U, G30C, C31U
DNA 1: CAATCTGAATTCCGGTCTCCC
DNA 2: TGGTGGCTACGACGGGATT
B10: UAUGAGU (DNA:RNA)
RNA: B3 RNA with C25U, U26A, A27U, A28G, C31U
DNA 1: CAATCTGAATTCCGGTCTCCC
DNA 2: TGGTGGCTACGACGGGATT
B11: ACGUCAA (DNA:RNA)
RNA: B1 RNA with G25A, A26C
DNA 1: CAATCTGAATTCCGGTCTCCC
DNA 2: TGGTGGCTACGACGGGATT
B12: AUGUUAU (DNA:RNA)
RNA: B1 RNA with G25A, A26U, C29U, A31U
DNA 1: CAATCTGAATTCCGGTCTCCC
DNA 2: TGGTGGCTACGACGGGATT
B13: ACAUACU (DNA:RNA)
RNA: B3 RNA with C25A, U26C, A28U, G30C, C31U
DNA 1: CAATCTGAATTCCGGTCTCCC
DNA 2: TGGTGGCTACGACGGGATT
B14: UGCCCUU (DNA:RNA)
RNA: B1 RNA with G25U, A26G, G27C, U28C, A30U, A31U
DNA 1: CAATCTGAATTCCGGTCTCCC
DNA 2: TGGTGGCTACGACGGGATT
B15: AAAUGAG (DNA:RNA)
RNA: B1 RNA with G25A, G27A, C29G, A31G
DNA 1: CAATCTGAATTCCGGTCTCCC
DNA 2: TGGTGGCTACGACGGGATT
B16: UAAGUCC (DNA:RNA)
RNA: B3 RNA with C25U, U26A, A28G, A29U, G30C
DNA 1: CAATCTGAATTCCGGTCTCCC
DNA 2: TGGTGGCTACGACGGGATT
B17: UCGCCAA (DNA:RNA)
RNA: B1 RNA with G25U, A26C, U28C
DNA 1: CAATCTGAATTCCGGTCTCCC
DNA 2: TGGTGGCTACGACGGGATT
B18: GGCGGAA (DNA:RNA)
RNA: B1 RNA with A26G, G27C, U28G, C29G
DNA 1: CAATCTGAATTCCGGTCTCCC
DNA 2: TGGTGGCTACGACGGGATT
B19: GACCACA (DNA:RNA)
RNA: B1 RNA with G27C, U28C, C29A, A30C
DNA 1: CAATCTGAATTCCGGTCTCCC
DNA 2: TGGTGGCTACGACGGGATT
B20: UUCACAC (DNA:RNA)
RNA: B3 RNA with C25U, A27C, A29C, G30A
DNA 1: CAATCTGAATTCCGGTCTCCC
DNA 2: TGGTGGCTACGACGGGATT
B21: ACGAUUC (DNA:RNA)
RNA: B3 RNA with C25A, U26C, A27G, A29U, G30U
DNA 1: CAATCTGAATTCCGGTCTCCC
DNA 2: TGGTGGCTACGACGGGATT
B22: UGCUGUA (DNA:RNA)
RNA: B1 RNA with G25U, A26G, G27C, C29G, A30U
DNA 1: CAATCTGAATTCCGGTCTCCC
DNA 2: TGGTGGCTACGACGGGATT
B23: CUAGAGA (DNA:RNA)
RNA: B3 RNA with A28G, C31A
DNA 1: CAATCTGAATTCCGGTCTCCC
DNA 2: TGGTGGCTACGACGGGATT
B24: GCCAAAU (DNA:RNA)
RNA: B3 RNA with C25G, U26C, A27C, G30A, C31U
DNA 1: CAATCTGAATTCCGGTCTCCC
DNA 2: TGGTGGCTACGACGGGATT
B25: GCGGUAU (DNA:RNA)
RNA: B1 RNA with A26C, U28G, C29U, A31U
DNA 1: CAATCTGAATTCCGGTCTCCC
DNA 2: TGGTGGCTACGACGGGATT
B26: AUGAGCA (DNA:RNA)
RNA: B3 RNA with C25A, A27G, A29G, G30C, C31A
DNA 1: CAATCTGAATTCCGGTCTCCC
DNA 2: TGGTGGCTACGACGGGATT
B27: UGCCGGG (DNA:RNA)
RNA: B3 RNA with C25U, U26G, A27C, A28C, A29G, C31G
DNA 1: CAATCTGAATTCCGGTCTCCC
DNA 2: TGGTGGCTACGACGGGATT
B28: GUAAAAU (DNA:RNA)
RNA: B3 RNA with C25G, G30A, C31U
DNA 1: CAATCTGAATTCCGGTCTCCC
DNA 2: TGGTGGCTACGACGGGATT
B29: CUCUUCA (DNA:RNA)
RNA: B3 RNA with A27C, A28U, A29U, G30C, C31A
DNA 1: CAATCTGAATTCCGGTCTCCC
DNA 2: TGGTGGCTACGACGGGATT
B30: GAGGUGU (DNA:RNA)
RNA: B1 RNA with U28G, C29U, A30G, A31U
DNA 1: CAATCTGAATTCCGGTCTCCC
DNA 2: TGGTGGCTACGACGGGATT
B31: GGAAGGG (DNA:RNA)
RNA: B3 RNA with C25G, U26G, A29G, C31G
DNA 1: CAATCTGAATTCCGGTCTCCC
DNA 2: TGGTGGCTACGACGGGATT

molecular target: T1, RBFOX1 RRM RbFoxmut (Fox-RRM*); test: EMSA; HiTS-Eq, 1 nM pool, 10 min; buffer printed only for the single-RNA assays: 10 mM Tris pH 7.5, 150 mM NaCl, 3.4 mM EDTA, 0.001% NP-40, 30 C; conditions: tags: His6 N-terminal (pET28a); label: 5' 32P
Method in brief: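 These values rest on relative association constants, computed from read-count changes of each RNA species versus the control reaction and normalised to the cognate motif. Reads came from free RNA recovered by 8% native PAGE after purified RbFox RRM (wild type or mutant) at increasing concentrations was equilibrated for 10 min in 50 µL with 1 nM of a 5′-radiolabelled pool with 7 randomized nucleotides and DNA-annealed flanks.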

For B1, which binding signal is on record?
The binding signal was 0.104 KA relative to UGCAUGU.

B2 was tested. Which binding signal did it give?
The binding signal was 0.21 KA relative to UGCAUGU.

How did the binding signal turn out when B3 was run?
The binding signal was 0.0592 KA relative to UGCAUGU.

With B4 as the binder, how does the binding signal read?
Its binding signal is 0.0964 KA relative to UGCAUGU.

For B5, which binding signal is on record?
Its binding signal is 0.111 KA relative to UGCAUGU.

B6 was tested. Which binding signal did it give?
Its binding signal is 0.0617 KA relative to UGCAUGU.

With B7 as the binder, how does the binding signal read?
The binding signal was 0.0791 KA relative to UGCAUGU.

B8 was tested. Which binding signal did it give?
The binding signal was 0.091 KA relative to UGCAUGU.

Which binding signal does the source give for B9 here?
The binding signal was 0.0851 KA relative to UGCAUGU.

For B10, which binding signal is on record?
The binding signal was 0.133 KA relative to UGCAUGU.

Which binding signal does the source give for B11 here?
The binding signal was 0.0727 KA relative to UGCAUGU.

For B12, which binding signal is on record?
The binding signal was 0.167 KA relative to UGCAUGU.

Which binding signal does the source give for B13 here?
The binding signal was 0.0924 KA relative to UGCAUGU.

Which binding signal does the source give for B14 here?
The binding signal was 0.0887 KA relative to UGCAUGU.

B15 was tested. Which binding signal did it give?
The binding signal was 0.108 KA relative to UGCAUGU.

Which binding signal does the source give for B16 here?
Its binding signal is 0.0771 KA relative to UGCAUGU.

B17 was tested. Which binding signal did it give?
Its binding signal is 0.0572 KA relative to UGCAUGU.

How did the binding signal turn out when B18 was run?
The binding signal was 0.103 KA relative to UGCAUGU.

For B19, which binding signal is on record?
Its binding signal is 0.0871 KA relative to UGCAUGU.

How did the binding signal turn out when B20 was run?
Its binding signal is 0.0833 KA relative to UGCAUGU.

Which binding signal does the source give for B21 here?
Its binding signal is 0.119 KA relative to UGCAUGU.

Which binding signal does the source give for B22 here?
The binding signal was 0.211 KA relative to UGCAUGU.

B23 was tested. Which binding signal did it give?
The binding signal was 0.064 KA relative to UGCAUGU.

For B24, which binding signal is on record?
The binding signal was 0.0858 KA relative to UGCAUGU.

How did the binding signal turn out when B25 was run?
The binding signal was 0.136 KA relative to UGCAUGU.

For B26, which binding signal is on record?
Its binding signal is 0.141 KA relative to UGCAUGU.

For B27, which binding signal is on record?
Its binding signal is 0.0889 KA relative to UGCAUGU.

B28 was tested. Which binding signal did it give?
Its binding signal is 0.0936 KA relative to UGCAUGU.

Which binding signal does the source give for B29 here?
Its binding signal is 0.097 KA relative to UGCAUGU.

B30 was tested. Which binding signal did it give?
Its binding signal is 0.138 KA relative to UGCAUGU.

How did the binding signal turn out when B31 was run?
Its binding signal is 0.0512 KA relative to UGCAUGU.
